This list was built around the results that the source calls inconclusive (neither active nor inactive); the mix of calls is not that of the screen. For part of these data: Where the call is inconclusive, the potency comes from a doubtful curve fit. For part of these data: A note “side channel” means that the fit belongs to a control or component signal, not to the main read-out. Activity calls are given as the source filed them. Unless noted, the call rests on the fitted dose curve.
Experiments:
[1] = target: Estrogen receptor (Homo sapiens) (UniProt P03372); assay: qHTS assay for small molecule agonists of estrogen receptor alpha signaling (AID 588514); conditions: ER-alpha-UAS-bla HEK293, beta-lactamase ratio, 18 h; activation: at 76.8 µM (top of the series), percent of full estradiol response, vehicle zero; further: nearly all actives have a fitted effect of over 70% in size; further: potency means the concentration at half of the fitted maximal effect;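 on activation: 0% = vehicle only and 100% = reference agonist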
Chain of UniProt P03372 (P03372 whole entry, looked up): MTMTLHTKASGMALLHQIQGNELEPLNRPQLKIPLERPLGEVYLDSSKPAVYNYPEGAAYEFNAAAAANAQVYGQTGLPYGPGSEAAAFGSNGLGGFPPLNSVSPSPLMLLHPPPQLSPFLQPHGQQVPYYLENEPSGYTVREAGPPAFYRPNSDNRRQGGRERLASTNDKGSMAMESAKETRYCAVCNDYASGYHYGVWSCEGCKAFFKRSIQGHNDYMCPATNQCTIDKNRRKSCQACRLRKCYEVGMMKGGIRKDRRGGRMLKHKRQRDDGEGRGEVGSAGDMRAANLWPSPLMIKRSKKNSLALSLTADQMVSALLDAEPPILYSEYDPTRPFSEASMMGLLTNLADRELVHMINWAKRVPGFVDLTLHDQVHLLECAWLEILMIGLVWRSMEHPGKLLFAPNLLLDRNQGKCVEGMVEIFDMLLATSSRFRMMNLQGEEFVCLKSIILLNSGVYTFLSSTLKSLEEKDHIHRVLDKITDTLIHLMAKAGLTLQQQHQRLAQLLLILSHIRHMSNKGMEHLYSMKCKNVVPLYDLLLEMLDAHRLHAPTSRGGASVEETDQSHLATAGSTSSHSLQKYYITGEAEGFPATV
Outline: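 Fluorescence from CCF4 cleavage reports ER-alpha-driven beta-lactamase expression in HEK 293 cells treated 18 hrs at 37 C. Data normalized to 17-beta-estradiol (20 nM) and DMSO, fitted to Hill equation.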

[2] = target: Peroxisome proliferator-activated receptor gamma (Homo sapiens) (UniProt P37231); assay: qHTS assay for small molecule agonists of peroxisome proliferator-activated receptor gamma signaling (AID 588536; active means well fitted curve in the direction sought with a large enough effect in the signal ratio, with a control signal flat, not every such curve was filed as active; inconclusive means small, poorly fitted or top-dose-only effect, or effect the other way, or a change in a side signal; inactive means no such curve, though single readings can be large or run the other way; the % refers to the signal ratio; further: potency means the concentration at half of the fitted maximal effect;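 on activation: 0% = DMSO basal wells and 100% = rosiglitazone at 2 µM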); conditions: HEK293 PPARg-UAS-bla, beta-lactamase ratio, 16 h; activation: at 76.7 µM (top of the series), percent of rosiglitazone response, DMSO as zero unless noted
Outline: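 Compound treatment: 16 h, 37 C, HEK293 GeneBLAzer cells. Detection: CCF4, 2 h RT. Values: Hill-fit EC50, efficacy as % of 2 uM rosiglitazone.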

[3] = target: Vitamin D3 receptor (Homo sapiens) (UniProt P11473); assay: qHTS assay for small molecule antagonists of vitamin D receptor signaling (AID 588541); conditions: HEK293T VDR-UAS-bla, beta-lactamase ratio, antagonist mode; activity change, negative = inhibition: at 76.7 µM (top of the series); further: potency means the concentration at half of the fitted maximal effect
[4] = qHTS assay for small molecule agonists of the antioxidant response element (ARE) signaling pathway (AID 651741; active means well fitted activation curve with a large enough effect in the signal ratio; inconclusive means small, poorly fitted or top-dose-only effect, or effect the other way, or a change in a side signal; the % refers to the signal ratio; further: potency means the concentration at half of the fitted maximal effect; on activation: % of control where 0% means no effect); conditions: HepG2 ARE-bla reporter, beta-lactamase FRET ratio, 16 h; activation: at 96 µM (top of the series) unless noted
Outline: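 Agonist activity is measured as ARE-driven beta-lactamase expression in a stable HepG2 reporter line, using 16 h compound treatment at 37 C and a FRET substrate fluorescence readout after 2 h.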

[5] = qHTS assay for small molecule activators of the p53 signaling pathway (AID 651743; active means well fitted activation curve with a large enough effect in the signal ratio, not every such curve was filed as active; inconclusive means small, poorly fitted or top-dose-only effect, or a change in a side signal; the % refers to the signal ratio; further: potency means the concentration at half of the fitted maximal effect; on activation: % of control where 0% means no effect); conditions: HCT-116 p53RE-bla, beta-lactamase FRET ratio, 16 h; activation: stronger effect = higher value
Outline: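 A beta-lactamase reporter under p53 response element control, stably carried by HCT-116 cells, reported pathway activation. Test compounds were applied for 16 hours at 37 C, and fluorescence was measured 2 hours after adding the B/G FRET substrate.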

[6] = target: Peroxisome proliferator-activated receptor delta (Homo sapiens) (UniProt Q03181); assay: qHTS assay for small molecule agonists of peroxisome proliferator-activated receptor delta signaling (AID 588534); conditions: HEK293T PPARdelta-UAS-bla, beta-lactamase ratio, 18 h; activation: at 76.7 µM (top of the series); further: potency means the concentration at half of the fitted maximal effect
Chain of UniProt Q03181 (Q03181 whole entry, looked up): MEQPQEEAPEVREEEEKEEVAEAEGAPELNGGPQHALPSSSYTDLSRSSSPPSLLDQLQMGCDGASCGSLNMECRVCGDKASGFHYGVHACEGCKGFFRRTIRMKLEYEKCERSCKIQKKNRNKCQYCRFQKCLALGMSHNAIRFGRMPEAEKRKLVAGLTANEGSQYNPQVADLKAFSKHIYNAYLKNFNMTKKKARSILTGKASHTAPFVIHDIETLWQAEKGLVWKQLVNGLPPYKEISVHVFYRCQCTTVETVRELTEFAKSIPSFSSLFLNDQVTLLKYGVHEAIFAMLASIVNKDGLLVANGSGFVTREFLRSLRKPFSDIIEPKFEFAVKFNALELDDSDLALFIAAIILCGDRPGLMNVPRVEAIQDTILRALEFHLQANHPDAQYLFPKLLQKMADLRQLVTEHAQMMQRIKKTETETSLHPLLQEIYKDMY
Outline: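 EC50 and efficacy values derive from Hill fits of a concentration series in a beta-lactamase reporter cell assay. Exposure is 18 hrs at 37 C, with CCF4 fluorescence as the readout.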

[7] = target: Peroxisome proliferator-activated receptor delta (Homo sapiens) (UniProt Q03181); assay: qHTS assay for small molecule antagonists of peroxisome proliferator-activated receptor delta signaling (AID 588535; active means well fitted inhibition curve with a large enough effect in the signal ratio, with a control signal flat, not every such curve was filed as active; inconclusive means small, poorly fitted or top-dose-only effect, or effect the other way, or a change in a side signal; inactive means no such curve, though single readings can be large or run the other way; the % refers to the signal ratio; further: potency means the concentration at half of the fitted maximal effect); conditions: HEK293T PPARd-UAS-bla, beta-lactamase FRET ratio, 18 h; activity change, negative = inhibition: at 76.7 µM (top of the series) unless noted
Outline: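 Antagonist-mode qHTS using GeneBLAzer PPAR-delta-UAS-bla HEK293T cells; compound exposure 18 hrs at 37 C over a titration. Ratiometric CCF4 fluorescence at 460/530 nm; concentration-response points fitted to the Hill equation.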

[8] = target: Peroxisome proliferator-activated receptor gamma (Homo sapiens) (UniProt P37231); assay: qHTS assay for small molecule antagonists of peroxisome proliferator-activated receptor gamma signaling (AID 588537; active means well fitted inhibition curve with a large enough effect in the signal ratio, with a control signal flat, not every such curve was filed as active; inconclusive means small, poorly fitted or top-dose-only effect, or effect the other way, or a change in a side signal; the % refers to the signal ratio;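 further: reporter cells co-stimulated with 50 nM rosiglitazone agonist during compound treatment; % of control where 0% means no effect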); conditions: HEK293 PPARg-UAS-bla, beta-lactamase ratio, antagonist mode; activity, negative = inhibition: at 76.8 µM (top of the series)
Outline: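 Cell-based beta-lactamase assay; GW9662 served as the antagonist control. Stimulation used rosiglitazone, final 50 nM, 16 h, 37 C.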

[9] = target: Retinoic acid receptor RXR-alpha (Homo sapiens) (UniProt P19793); assay: qHTS assay for small molecule agonists of retinoid X receptor alpha signaling (AID 588544); conditions: HEK293T RXRa-UAS-bla, beta-lactamase reporter, 18 h; activation: at 76.7 µM (top of the series) unless noted; further: potency means the concentration at half of the fitted maximal effect;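 on activation: 0% = DMSO basal wells and 100% = reference agonist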
Chain of UniProt P19793 (P19793 whole entry, looked up): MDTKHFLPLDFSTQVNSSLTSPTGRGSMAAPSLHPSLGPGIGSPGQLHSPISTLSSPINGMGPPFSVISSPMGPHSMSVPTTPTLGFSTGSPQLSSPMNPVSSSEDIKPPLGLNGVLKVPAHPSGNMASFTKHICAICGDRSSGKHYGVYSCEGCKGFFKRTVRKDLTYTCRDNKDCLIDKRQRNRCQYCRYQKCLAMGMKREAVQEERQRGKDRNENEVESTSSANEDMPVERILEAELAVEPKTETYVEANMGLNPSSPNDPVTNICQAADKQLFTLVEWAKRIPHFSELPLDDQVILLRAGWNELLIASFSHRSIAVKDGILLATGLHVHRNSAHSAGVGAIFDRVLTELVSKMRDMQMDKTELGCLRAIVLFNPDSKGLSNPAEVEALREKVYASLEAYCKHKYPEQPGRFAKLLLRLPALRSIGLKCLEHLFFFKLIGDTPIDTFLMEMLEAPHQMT

[10] = target: Retinoic acid receptor RXR-alpha (Homo sapiens) (UniProt P19793); assay: qHTS assay for small molecule antagonists of retinoid X receptor alpha signaling (AID 588546; active means well fitted inhibition curve with a large enough effect in the signal ratio, with a control signal flat, not every such curve was filed as active; inconclusive means small, poorly fitted or top-dose-only effect, or effect the other way, or a change in a side signal; inactive means no such curve, though single readings can be large or run the other way; the % refers to the signal ratio;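 further: cells stimulated with 9-cis-retinoic acid as agonist; on the % scale 0 is the no-effect control and ±100 the full control effect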); conditions: HEK293T RXRa-UAS-bla, beta-lactamase ratio, antagonist mode
Outline: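 Beta-lactamase reporter inhibition, read as CCF4 fluorescence ratio (ex 405, em 460/530 nm) after 2 h at RT. HEK293T UAS-bla cells, 2500/well, were stimulated with 9-cis-RA at 500 or 100 nM final alongside test compound for 18 h at 37 C.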

[11] = qHTS assay for small molecule agonists of the antioxidant response element (ARE) signaling pathway measured by Nrf2-dependant transcriptional activity (AID 720636; active means well fitted curve in the direction sought with a large enough effect in the repeat runs; inconclusive means weak or mixed curves; inactive means no such curve, though single readings can be large; an effect the other way counts as inactive or inconclusive; further: potency means the concentration at half of the fitted maximal effect)
Outline: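 Nrf2-dependent transcription is measured in ARE-luc HepG2 cells: compound is applied for 16 hr at 37 C after a 6 hr attachment period, and luciferase activity is quantified by luminescence using ONE-Glo.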

[12] = qHTS assay for cell viability of the p53RE-bla HCT-116 cell line (AID 743292; active means well fitted curve in the direction sought with a large enough effect; inconclusive means small, poorly fitted or top-dose-only effect, or another doubt; inactive means no such curve, though single readings can be large; an effect the other way counts as inactive or inconclusive; further: on the % scale 0 is the no-effect control and ±100 the full control effect; nearly all actives have a fitted effect of over 55% in size)
Outline: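 ATP-based luminescence, 16 h compound exposure at 37 C, p53RE-bla HCT-116 cells at 4,000/well.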

[13] = target: Vitamin D3 receptor (Homo sapiens) (UniProt P11473); assay: qHTS assay for small molecule agonists of vitamin D receptor signaling (AID 588543); conditions: HEK293T VDR-UAS-bla, beta-lactamase ratio, 16 h; activation: at 76.8 µM (top of the series); further: potency means the concentration at half of the fitted maximal effect
Outline: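 GeneBLAzer VDR-UAS-bla HEK293T cells in 2% charcoal-stripped FBS medium were dosed with compound titrations for 16 h at 37 °C; CCF4 β-lactamase readout (405 nm ex, 460/530 nm em). EC50 and efficacy from Hill fits, normalized to 50 nM calcitriol (100%) and DMSO (0%).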

[14] = qHTS assay to identify small molecules that stimulate interleukin-8 (IL-8) secretion (AID 651758; active means well fitted activation curve with a large enough effect in the signal ratio; inconclusive means small, poorly fitted or top-dose-only effect, or effect the other way, or a change in a side signal; the % refers to the signal ratio; further: potency means the concentration at half of the fitted maximal effect); conditions: HTRF ratio (665/615); activation: at 92.2 µM (top of the series)
Outline: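 Secreted IL-8 measured homogeneously by TR-FRET (two labelled anti-IL-8 antibodies, 1-3 h at room temperature) after a 16 h, 37 C compound treatment of THP-1 cells at 2000 cells/well.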

[15] = target: Nuclear receptor ROR-gamma (Homo sapiens) (UniProt P51449); assay: qHTS assay for small molecule antagonists of the retinoid-related orphan receptor gamma (ROR-gamma) signaling pathway (AID 651802; active means well fitted curve in the direction sought with a large enough effect; inconclusive means small, poorly fitted or top-dose-only effect, or another doubt; inactive means no such curve, though single readings can be large; an effect the other way counts as inactive or inconclusive; further: potency means the concentration at half of the fitted maximal effect; nearly all actives have a fitted effect of over 60% in size)
Chain of UniProt P51449 (P51449 whole entry, looked up): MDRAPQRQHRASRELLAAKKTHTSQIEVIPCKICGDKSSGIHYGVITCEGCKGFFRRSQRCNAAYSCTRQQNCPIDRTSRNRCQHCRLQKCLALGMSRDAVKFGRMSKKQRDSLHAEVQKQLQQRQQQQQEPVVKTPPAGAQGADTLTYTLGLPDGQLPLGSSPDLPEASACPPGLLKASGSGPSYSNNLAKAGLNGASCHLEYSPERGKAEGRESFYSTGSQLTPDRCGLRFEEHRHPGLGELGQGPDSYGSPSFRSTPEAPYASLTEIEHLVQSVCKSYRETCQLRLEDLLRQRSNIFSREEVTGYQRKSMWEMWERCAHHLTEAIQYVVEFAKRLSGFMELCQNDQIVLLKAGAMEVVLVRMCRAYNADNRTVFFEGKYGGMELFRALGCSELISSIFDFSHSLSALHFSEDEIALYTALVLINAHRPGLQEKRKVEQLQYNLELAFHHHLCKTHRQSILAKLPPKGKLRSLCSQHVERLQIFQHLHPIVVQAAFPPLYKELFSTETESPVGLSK
Outline: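 Doxycycline-induced reporter activity in engineered CHO cells (TET-inducible ROR, RORE-LUC) was measured by luminescence after 16hr compound exposure at 37C.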

[16] = target: Thyroid hormone receptor beta (Homo sapiens) (UniProt P10828); assay: qHTS assay for small molecule antagonists of thyroid hormone receptor beta signaling (AID 588547; active means well fitted inhibition curve with a large enough effect in the signal ratio, with a control signal flat, not every such curve was filed as active; inconclusive means small, poorly fitted or top-dose-only effect, or effect the other way, or a change in a side signal; the % refers to the signal ratio;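 further: cells stimulated with 0.4 nM T3 agonist during compound exposure; on the % scale 0 is the no-effect control and ±100 the full control effect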); conditions: TR-UAS-bla HEK293, beta-lactamase ratio, antagonist mode, 18 h
Chain of UniProt P10828 (P10828 whole entry, looked up): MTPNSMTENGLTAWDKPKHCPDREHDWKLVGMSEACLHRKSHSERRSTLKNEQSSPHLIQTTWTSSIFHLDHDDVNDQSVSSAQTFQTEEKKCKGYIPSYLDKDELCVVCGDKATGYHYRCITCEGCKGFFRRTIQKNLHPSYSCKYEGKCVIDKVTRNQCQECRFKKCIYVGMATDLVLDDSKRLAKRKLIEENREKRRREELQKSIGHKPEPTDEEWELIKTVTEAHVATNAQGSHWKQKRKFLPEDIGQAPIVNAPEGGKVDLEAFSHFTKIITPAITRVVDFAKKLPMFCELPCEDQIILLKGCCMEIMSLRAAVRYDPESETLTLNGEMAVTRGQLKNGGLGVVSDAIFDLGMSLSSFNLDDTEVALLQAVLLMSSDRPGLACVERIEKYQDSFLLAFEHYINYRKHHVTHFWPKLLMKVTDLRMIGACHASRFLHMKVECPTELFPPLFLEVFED
Outline: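 Inhibition of T3-driven (0.4nM final) beta-lactamase reporter activity was measured over 0.59 nM to 92 uM compound after 18 h at 37 C. The cells were GripTite HEK293 TR-UAS-bla in charcoal/dextran-stripped serum, with CCF4 ratio read-out and IC50 from Hill fits.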
Tags describe the fitted curve by direction and shape or compound fluorescence and quenching.

c1ccc2cc3c(ccc4ccccc43)cc2c1
inconclusive: Potency [1] 39.8 µM [side channel, rising, partial curve, poor fit] | Potency [2] 39.8 µM [activator, partial curve] | Potency [3] 44.7 µM [activator, single point] | Potency [5] 0.0089 µM [side channel, falling, full curve, poor fit]
active: Potency [4] 12.2 µM

Cn1cc(-c2ccccc2)c(=O)c(-c2cccc(C(F)(F)F)c2)c1
inconclusive: Potency [6] 44.7 µM [side channel, rising, single point] | Potency [9] 14.1 µM [inhibitor, partial curve] | activation [4] 9.79%
inactive: Potency [1] | Potency [7] | Potency [8]

CCOc1nc(C(Cl)(Cl)Cl)ns1
inconclusive: activation [1] 54.5% | activation [4] 6.65% | Potency [11] 1.54 µM [activator, full curve, poor fit]
inactive: Potency [8] | Potency [9] | max response [10] 3.55% | Potency [12]

O=P(O)(O)CN(CP(=O)(O)O)CP(=O)(O)O
inconclusive: activation [1] 81.6% | activation [9] 51.3% | Potency [4] 68.6 µM [activator, single point]

Brc1cc(Br)c(Oc2cc(Br)c(Br)cc2Br)cc1Br
inconclusive: Potency [1] 14.1 µM [side channel, rising, partial curve] | Potency [7] 22.4 µM [fluorescent, side channel, partial curve, poor fit] | Potency [2] 22.4 µM [fluorescent, side channel, full curve] | Potency [13] 39.8 µM [side channel, rising, partial curve, poor fit] | Potency [9] 25.1 µM [fluorescent, side channel, full curve, poor fit] | Potency [4] 66.8 µM [activator, single point] | Potency [14] 75 µM [activator, single point] | Potency [15] 42.2 µM [inhibitor, partial curve, poor fit]

CC(Oc1ccc(Cl)cc1Cl)C(=O)O (centres undefined)
inconclusive: Potency [1] 28.2 µM [side channel, rising, single point] | activation [2] 15.1% | activity change % (negative = inhibition) [16] 15.5% | activation [4] 14.4%
inactive: Potency [8]

CCOP(=S)(NC(C)C)Oc1ccccc1C(=O)OC(C)C (centres undefined)
inactive: Potency [8] | Potency [4] | activation [5] 2.9%
inconclusive: activation [1] 71.2% | Potency [9] 44.7 µM [inhibitor, single point]

From PubChem BioAssay (NCATS)
